Test results from PubChem BioAssay AID488969 (Vanderbilt High Throughput Screening Facility, 2010).
The full ranking holds about 110,000 compounds; the median of “z-score” is about -0.1, and the highest 2% start at about 2. The list shows a part of the results. The source made the active and inactive calls.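 Rule for the calls: active = z-score in the third read window above 3 or below -3; inactive = the rest.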

These molecules were tested against Metabotropic glutamate receptor 8 (Rattus norvegicus) (UniProt P70579) (assay: mGluR8 Gi/Go-coupled signaling modulation – cell-based, rat, thallium flux, HTS, primary screen (AID 488969)). Settings: HEK293 rat mGluR8, GIRK (G protein-gated inwardly rectifying potassium channel) thallium flux, FluoZin2; at 10 µM; stronger effect = higher value; submaximal glutamate (EC20) added with thallium.
Sequence of UniProt P70579 (P70579 whole entry, looked up): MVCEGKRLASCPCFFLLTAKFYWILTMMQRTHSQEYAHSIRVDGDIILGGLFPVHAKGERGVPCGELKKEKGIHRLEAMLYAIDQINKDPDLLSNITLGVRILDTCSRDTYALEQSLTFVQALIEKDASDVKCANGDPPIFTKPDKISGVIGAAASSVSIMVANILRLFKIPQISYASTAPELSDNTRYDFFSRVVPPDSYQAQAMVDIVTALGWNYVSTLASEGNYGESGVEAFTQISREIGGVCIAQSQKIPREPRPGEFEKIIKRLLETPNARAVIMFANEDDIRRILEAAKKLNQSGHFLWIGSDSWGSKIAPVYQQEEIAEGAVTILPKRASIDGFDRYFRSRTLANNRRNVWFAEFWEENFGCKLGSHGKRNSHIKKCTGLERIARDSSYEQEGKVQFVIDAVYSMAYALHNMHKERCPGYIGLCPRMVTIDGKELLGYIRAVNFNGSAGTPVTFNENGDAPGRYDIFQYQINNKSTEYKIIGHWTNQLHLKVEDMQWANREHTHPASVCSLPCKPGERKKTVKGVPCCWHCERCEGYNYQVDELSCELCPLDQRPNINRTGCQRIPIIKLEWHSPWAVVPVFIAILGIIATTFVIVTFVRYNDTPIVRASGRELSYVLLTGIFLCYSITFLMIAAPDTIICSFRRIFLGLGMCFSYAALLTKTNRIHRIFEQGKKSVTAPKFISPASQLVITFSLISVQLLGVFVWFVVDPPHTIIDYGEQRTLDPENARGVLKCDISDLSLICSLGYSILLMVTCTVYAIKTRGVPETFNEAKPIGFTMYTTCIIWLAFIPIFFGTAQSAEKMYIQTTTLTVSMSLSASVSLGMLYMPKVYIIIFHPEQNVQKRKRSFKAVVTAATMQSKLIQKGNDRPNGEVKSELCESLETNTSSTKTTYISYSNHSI

Compared with `CCCCSc1nc2c(cnn2-c2ccc(Cl)cc2)c(=O)[nH]1`, `O=C1c2ccccc2C(=O)N1c1ccc(Cl)cn1` is lower in z-score: 0.0662 for the first, -0.295 for the second.

First: Cn1c(=O)c2c(n3cnnc13)-c1ccccc1CC21CCCC1
Second: CC1CCN(CCCn2c(=S)[nH]c3ccccc3c2=O)CC1
The z-score of the first is higher: 0.288 for the first, 0.0115 for the second.

First: Cc1cccc(N(CC(=O)Nc2c(C)n(C)n(-c3ccccc3)c2=O)S(C)(=O)=O)c1
Second: Cc1c(S(=O)(=O)N2CCN(C(c3ccccc3)c3ccccc3)CC2)c(=O)n(C)c(=O)n1C
The z-score of the first is higher: 0.355 for the first, -0.324 for the second.

Going from `O=S(=O)(c1ccccc1)N1c2cc(Cl)ccc2Oc2nc3ccccc3nc21` to `O=c1c2ccccc2nc(SCc2ccccc2Cl)n1Cc1ccccc1`, the z-score rises from -0.294 to -0.107.

Compared with `COc1ccc2c(c1)-c1c(ssc1=S)C(C)(C)N2`, `C=CCn1c(-c2cc(Cl)ccc2OC)n[nH]c1=S` is higher in z-score: -0.613 for the first, -0.302 for the second.

Going from `COc1cc(/C=C/C(=O)C2C(=O)C=C(C)OC2=O)cc(OC)c1O` (stereo not given) to `COc1ccc(CCN2C(=O)C(O)=C(C(C)=O)C2c2ccccc2OC)cc1OC` (stereo not given), the z-score falls from -0.286 to -0.511.

First: Clc1ccc(CSc2nnc(/C=C/c3ccccc3)o2)c(Cl)c1
Second: COC(=O)c1ccc(OC)c(CSc2nnc(COc3ccccc3)o2)c1
The z-score of the first is higher: -0.0625 for the first, -0.573 for the second.

Compared with `O=C(CSc1nnc(-c2ccco2)n1CC1CCCO1)NC1CCCC1` (stereo not given), `CCn1c(SCC(=O)Nc2nc(C)c(C)s2)nnc1-c1ccco1` is lower in z-score: 0.42 for the first, -0.149 for the second.

Compared with `O=[N+]([O-])c1ccc(OCCCCN2CCCCC2)cc1`, `Cc1ccc(S(=O)(=O)Cc2ccc(C(=O)N3CCCCCC3)o2)cc1` is lower in z-score: 0.208 for the first, -0.0382 for the second.

Going from `S=c1[nH]nc(Cc2cccc3ccccc23)o1` to `OC(CN1CCOCC1)Cn1c(-c2cccc(Cl)c2)nc2ccccc21` (stereo not given), the z-score rises from -0.141 to 0.102.

Compared with `COc1ccc(OC)c(C(=O)c2coc3ccc(OCC(=O)O)cc23)c1`, `COc1ccc(OC)c(N(CC(=O)Nc2ccc3c(c2)OCO3)S(=O)(=O)c2ccccc2)c1` is higher in z-score: -0.618 for the first, -0.348 for the second.

Compared with `Cc1cc(C(=O)OCC(=O)c2cccc([N+](=O)[O-])c2)c2cccc(C)c2n1`, `CCCc1nc2ccccc2c(C(=O)OCC(=O)c2ccc3c(c2)NC(=O)CO3)c1CC` is lower in z-score: 0.0809 for the first, -0.0389 for the second.

Compared with `Cc1nc(CNS(=O)(=O)c2ccc(Oc3ccccc3)cc2)cs1`, `O=[N+]([O-])c1ccccc1NCCNS(=O)(=O)c1ccc(Cl)cc1` is lower in z-score: 0.404 for the first, -0.0705 for the second.

Going from `CCOc1cc(/C=N\NC(=O)Cn2nc([N+](=O)[O-])cc2C)ccc1OCc1cccc2ccccc12` to `CCOC(=O)c1ccc2c(c1)nc(COc1ccc3ccccc3c1)n2CC`, the z-score rises from -0.0599 to 0.395.

Going from `Cc1ccc(Nc2nc(N)nc(CSc3nc4ccccc4s3)n2)cc1` to `Cc1ccc(C(=O)Nc2nccc(-c3cccs3)n2)cc1`, the z-score falls from 0.228 to -0.21.

Going from `Cc1ccc(C(=O)N/N=C\c2ccc[nH]2)cc1[N+](=O)[O-]` to `COc1ccccc1CC(=O)Nc1ccc([N+](=O)[O-])cc1OC`, the z-score falls from -0.179 to -0.407.

First: CSc1ccc(S(=O)(=O)Nc2ccc(S(=O)(=O)Nc3ccc(C)cc3)cc2)cc1
Second: O=C(Nc1cc(S(=O)(=O)N2CCOCC2)ccc1O)c1ccc(NS(=O)(=O)c2ccc(Cl)s2)cc1
The z-score of the first is lower: -0.353 for the first, -0.318 for the second.

First: CCOC(=O)C1=NN(c2cccc(Cl)c2)C2=NC(C)=C(C(=O)OC)C(c3cccs3)N12 (stereo not given)
Second: CCOC(=O)c1cc(C(=O)c2cccs2)n2ccc(C(C)=O)cc12
The z-score of the first is higher: 1.71 for the first, -0.115 for the second.

First: C/C(=N\NC(=O)c1ccc(CSc2nncn2C)cc1)c1ccc(C#N)cc1
Second: CC(C)(C)c1ccc(C(=O)c2c[nH]c(C(=O)NCc3ccco3)c2)cc1
The z-score of the first is lower: -0.353 for the first, 0.44 for the second.

Going from `CCSc1nnc(NC(=O)CSc2nnc(CNC(=O)c3cc(OC)c(OC)c(OC)c3)o2)s1` to `COC(=O)CCN(C(=O)c1cc(OC)c(OC)c(OC)c1)c1ccccn1`, the z-score falls from 0.188 to -0.238.

Compared with `Cc1cc(C)cc(NC(=O)CSc2ccc(-c3cccs3)nn2)c1`, `C=CCn1c(SCC(=O)Nc2nc3ccccc3s2)nnc1-c1ccccc1O` is lower in z-score: -0.0502 for the first, -1.48 for the second.

Going from `CS(=O)(=O)N(CCc1ccccc1)CC(=O)N1CCN(c2ccc(F)cc2)CC1` to `Cc1nnc(SCC(=O)N2CCN(Cc3ccccc3)CC2)s1`, the z-score falls from 0.072 to -0.196.

First: COc1ccc(/C=C2/S/C(=N/N=C3\CC4CCC3(C)C4(C)C)NC2=O)cc1 (stereo not given)
Second: CCOc1ccc(N2CC(C(=O)Nc3cccc(C)c3C)CC2=O)cc1 (stereo not given)
The z-score of the first is lower: -0.651 for the first, -0.0951 for the second.

Going from `COC1=C(Nc2ccccc2)C(=O)c2ccccc2C1=O` to `CCOc1ccccc1N1CCN(C2=C(NS(=O)(=O)c3cccs3)C(=O)c3ccccc3C2=O)CC1`, the z-score rises from -0.28 to -0.248.

First: CCOC(=O)C1(C)/C(=N/Nc2ccc(Cl)cc2)C(=O)C(=O)N1c1ccccc1 (stereo not given)
Second: CC(=O)/C=C(\C)Nc1ccc(-c2cnc(-c3ccccc3)o2)cc1
The z-score of the first is lower: -0.0534 for the first, 0.0863 for the second.

Going from `O=C(c1ccco1)N1CCN(C(c2ccccc2Cl)c2nnnn2CC2CCCO2)CC1` (stereo not given) to `O=C(c1ccco1)N1CCN(C(c2ccccc2)c2nnnn2C2CCCC2)CC1` (stereo not given), the z-score falls from 0.248 to -0.364.

Going from `O=C(NCCN1CCN(C(=O)c2cccs2)CC1)C(=O)Nc1ccc(Br)cc1` to `COc1ccc(NC(=O)CN2CCN(c3ccccc3Cl)CC2)cc1`, the z-score falls from -0.194 to -0.216.

First: Cc1nn(CC(=O)N/N=C/c2ccc3c(c2)OCO3)c(C)c1Br
Second: Cc1ccc(/C=C/C(=O)NCc2ccc3c(c2)OCO3)o1
The z-score of the first is lower: -0.368 for the first, -0.159 for the second.

First: Cc1ccc(CNC(=O)CO/N=C/c2ccc(C(C)(C)C)cc2)cc1
Second: C=CCSc1ncccc1C(=O)NCc1ccc(C)cc1
The z-score of the first is higher: 0.00701 for the first, -0.198 for the second.

Compared with `CC1(C)C(c2ccccc2)=[N+]([O-])CN1O`, `O=C(CSc1ncccn1)NCc1ccccc1` is lower in z-score: 0.809 for the first, -0.203 for the second.

First: COc1ccc(Oc2cc(C)c3cccc(C)c3n2)cc1
Second: CCc1nn(-c2cc(Oc3cccc4ccccc34)nc(-c3ccccc3)n2)c(N)c1C#N
The z-score of the first is lower: -0.0751 for the first, 0.03 for the second.

Going from `Cc1ccc(N(CCC#N)C(=O)CCl)cc1C` to `CCCOc1ccc(CN(CCO)CCO)cc1C(=O)OC`, the z-score falls from -0.335 to -0.61.

Compared with `Cc1cc(C)n2nc(SCc3cc(=O)oc4cc(O)ccc34)nc2n1`, `Cc1cc(C)c(-c2c(O)c3cccc4c3n(c2=O)CCC4)c(C)c1` is higher in z-score: -0.101 for the first, 0.0112 for the second.

Compared with `O=c1cc(N2CCC3(CC2)OCCO3)[nH]c(=O)n1C1CCCCC1`, `CC(OC(=O)C1CCCO1)C(=O)NC1CCCC1` (stereo not given) is lower in z-score: 0.629 for the first, 0.22 for the second.

Compared with `O=C(Nc1ccccn1)c1ccco1`, `Cc1nn(CC(=O)NCc2cccnc2)c(=O)c2ccccc12` is higher in z-score: -0.643 for the first, -0.16 for the second.

First: Cc1cc(N(C)C)c(C#N)c(N2CCOCC2)n1
Second: CCOC(=O)c1[nH]c2ccc(Br)cc2c1NC(=O)CCN1CCC(C)CC1
The z-score of the first is higher: -0.00675 for the first, -0.616 for the second.

Compared with `CCOc1ccc(-c2nn(-c3ccccc3)cc2/C=C2\SC(=S)N(Cc3ccco3)C2=O)cc1`, `Fc1ccccc1COc1ccc(-c2nnn(Cc3ccccc3F)n2)cc1` is lower in z-score: -0.103 for the first, -0.229 for the second.

Going from `OCCN(CC(O)Cn1ccc2ccccc21)CC(O)Cn1ccc2ccccc21` (stereo not given) to `O=C1NC(c2ccccc2)=C(c2ccc3ccccc3n2)C(c2ccncc2)N1` (stereo not given), the z-score falls from 0.506 to -0.182.

Compared with `O=C(Nc1ccc2c(c1)OCO2)N1CCN(S(=O)(=O)c2ccc(Cl)cc2)CC1`, `Cc1ccccc1N1CCN(S(=O)(=O)c2ccc3oc(=O)ccc3c2)CC1` is lower in z-score: -0.24 for the first, -1.76 for the second.

First: CCc1cc(C(=O)COc2ccccc2F)c(O)cc1O
Second: N#Cc1ccsc1NC(=O)COC(=O)CCCSc1nc2ccccc2s1
The z-score of the first is lower: -0.141 for the first, -0.053 for the second.

Going from `CCCCN(CCCC)S(=O)(=O)c1ccc(NC(=O)CN2CCOCC2)cc1` to `Cc1cc(C)nc(SC(C)C(=O)Nc2ccc(S(N)(=O)=O)cc2)n1` (stereo not given), the z-score rises from 0.367 to 0.874.

Compared with `CCOC(=O)c1cnc2c(C)cc(C)cc2c1Nc1ccc(S(=O)(=O)Nc2ncccn2)cc1`, `Cc1ccccc1-n1c(SCC(=O)NC(N)=O)nc2sc(-c3ccccc3)cc2c1=O` is higher in z-score: -0.378 for the first, 0.4 for the second.

Compared with `O=C(OCn1nnc2ccccc2c1=O)C1COc2ccccc2O1` (stereo not given), `O=C(Nc1nnc(-c2ccccc2Cl)o1)c1nc2ccccc2s1` is higher in z-score: 0.438 for the first, 1.61 for the second.

Going from `COc1ccc(CCNC(=O)Cc2ccc3c(c2)OCO3)cc1OC` to `O=C(Nc1ccon1)c1ccc2c(c1)OCO2`, the z-score rises from -0.904 to 0.163.

First: C=CCNC(=S)N1CCN(CCN=CC2=C(O)CC(c3cccs3)CC2=O)CC1 (stereo not given)
Second: Cc1c(-c2cccs2)[n+](=O)c2c(n1[O-])CCCCC2
The z-score of the first is higher: 0.356 for the first, 0.038 for the second.

Going from `CCOc1ccc(CNC(=O)C2CCCN(S(C)(=O)=O)C2)cc1OC` (stereo not given) to `CC(C)CCNC(=O)C1CCN(S(=O)(=O)c2ccc3c(c2)CCC(=O)N3)CC1`, the z-score falls from 0.258 to -0.496.

Compared with `CC(C)(C)Cc1nnc(NS(C)(=O)=O)s1`, `CCC(C)(C)c1nnc(NC(=O)c2ccc([N+](=O)[O-])cc2)s1` is lower in z-score: -0.122 for the first, -0.246 for the second.

Going from `COc1ccc(NC(=O)C2CCCN2C(=O)Nc2ccccc2)cc1OC` (stereo not given) to `O=C(NNc1cccc(Cl)n1)Nc1cccc(C(F)(F)F)c1`, the z-score falls from 0.756 to -0.151.

Compared with `O=C(O)CCC(=O)NNC(=O)CCCOc1ccc(Cl)cc1Cl`, `CCc1cc(C(=O)OC)c(NC(=O)CCC(=O)O)s1` is lower in z-score: -0.0434 for the first, -0.105 for the second.

First: Cc1oc(C(C)(C)C)cc1C(=O)NCC(=O)NCC(=O)O
Second: CCOC(=O)CCCCC(=O)NC(CO)C(=O)NC (stereo not given)
The z-score of the first is lower: -0.126 for the first, 0.051 for the second.

First: CCCNC(=O)Nc1nccs1
Second: O=C(NCc1ccccn1)C(F)(F)C(F)(F)C(=O)NCc1ccccn1
The z-score of the first is higher: 0.416 for the first, -0.509 for the second.

First: Cc1cccc(CN2CCC(C(N)=O)CC2)c1
Second: O=S1(=O)CCN(Cc2cccc(Cl)c2)CC1
The z-score of the first is higher: -0.102 for the first, -0.236 for the second.

Compared with `O=C(c1cccn2c(=O)c3cc4ccccc4cc3nc12)N1CCN(c2ccccc2)CC1`, `CCC(C)(C)n1nnnc1C(c1ccc2ncccc2c1)N1CCN(c2nc3ccccc3s2)CC1` (stereo not given) is lower in z-score: -0.128 for the first, -0.286 for the second.

Going from `Cn1c(=O)c2ncn(CC(=O)N/N=C/c3ccco3)c2n(C)c1=O` to `Cc1ccc(C(C)n2cc(C(=O)NCc3cccnc3)nn2)cc1` (stereo not given), the z-score falls from -0.105 to -0.242.

`CC(C)C(=O)Nc1ccc([N+](=O)[O-])cc1Br` gave a z-score of -0.205.

For `O=C(Nc1ccc(F)cc1)c1cccc2c1C(=O)N(Cc1ccccn1)C2`, the z-score was active: -3.84.
